Measurements published in publication PMC4336329 (PLoS ONE, 2015).
The campaign covered roughly 310,000 compounds. About 2,200 (0.71%) showed an effect of 50% or more. Effects have a minus sign here. The list shows a part of the results.

target: human ether-à-go-go-related gene (hERG) potassium channel (human, UniProt Q12809); test: primary screen, population patch clamp on CHO cells stably expressing hERG
Sequence (Q12809 whole entry, looked up): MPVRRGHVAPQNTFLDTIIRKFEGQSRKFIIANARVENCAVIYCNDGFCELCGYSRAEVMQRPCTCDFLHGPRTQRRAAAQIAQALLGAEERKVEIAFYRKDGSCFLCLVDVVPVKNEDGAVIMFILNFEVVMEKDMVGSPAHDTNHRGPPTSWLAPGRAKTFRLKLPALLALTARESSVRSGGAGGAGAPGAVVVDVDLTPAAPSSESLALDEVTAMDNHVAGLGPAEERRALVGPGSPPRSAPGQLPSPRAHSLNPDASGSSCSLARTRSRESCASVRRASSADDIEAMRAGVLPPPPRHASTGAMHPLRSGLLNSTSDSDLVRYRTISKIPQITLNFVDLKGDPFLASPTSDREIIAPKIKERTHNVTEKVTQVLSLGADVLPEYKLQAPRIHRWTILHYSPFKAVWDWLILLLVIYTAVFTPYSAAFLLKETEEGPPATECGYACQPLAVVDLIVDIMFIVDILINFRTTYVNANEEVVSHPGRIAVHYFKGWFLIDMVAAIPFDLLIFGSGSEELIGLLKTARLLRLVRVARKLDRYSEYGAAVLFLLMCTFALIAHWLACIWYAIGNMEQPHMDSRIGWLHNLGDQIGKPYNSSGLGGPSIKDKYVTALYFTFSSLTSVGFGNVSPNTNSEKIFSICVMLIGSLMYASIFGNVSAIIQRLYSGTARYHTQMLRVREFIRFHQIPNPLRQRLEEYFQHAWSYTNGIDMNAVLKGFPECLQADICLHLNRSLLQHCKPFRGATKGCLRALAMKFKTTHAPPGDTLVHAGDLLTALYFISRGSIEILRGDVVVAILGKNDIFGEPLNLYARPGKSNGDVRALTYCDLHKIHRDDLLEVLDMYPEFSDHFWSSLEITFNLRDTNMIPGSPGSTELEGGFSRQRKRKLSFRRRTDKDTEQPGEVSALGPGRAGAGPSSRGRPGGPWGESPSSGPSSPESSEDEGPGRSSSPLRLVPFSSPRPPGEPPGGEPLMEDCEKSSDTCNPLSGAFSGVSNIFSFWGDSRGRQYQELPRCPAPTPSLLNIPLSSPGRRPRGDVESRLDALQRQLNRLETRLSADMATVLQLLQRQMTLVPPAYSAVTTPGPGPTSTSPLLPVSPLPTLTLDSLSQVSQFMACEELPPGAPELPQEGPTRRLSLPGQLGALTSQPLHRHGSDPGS

| SMILES | hERG current change (%, negative = inhibition) at 1uM |
| --- | --- |
| COc1ccc([N+](=O)[O-])cc1NC1C2CC3CC(C2)CC1C3 (stereo not shown) | 17.1% |
| Cc1cc(Cl)ccc1NC(=O)CN1CCC(C(O)(c2ccccc2)c2ccccc2)CC1 | 10.3% |
| Cc1cccc2sc(N(CCCN(C)C)C(=O)c3ccc4ncsc4c3)nc12 | 2.31% |
| CC(=O)Nc1cccc(/C(C)=N/NC(=O)c2ccc(O)cc2)c1 | 6.84% |
| Cc1c(OCC(=O)NCc2ccccn2)ccc2c(-c3ccccc3)cc(=O)oc12 | 15% |
| Cc1ccc(NCc2ccc(O)c3ncccc23)cc1C | 16.1% |
| Cc1ccc(C(C(=O)NC(C)(C)C)N(C(=O)CCC(=O)Nc2ccccn2)c2ccccc2F)cc1 (stereo not shown) | -9.88% |
| O=C(NCCc1ccccc1)C1CCN(C(=O)NCc2ccccc2)CC1 | 18% |
| COc1ccc(NC(=O)CS(=O)(=O)c2ccccc2Cl)cc1 | 5.25% |
| COc1ccccc1/C=N/Nc1nccnc1Cl | -0.808% |
| N#Cc1cc2cc3c(cc2nc1SCC(=O)OC1CCCCC1)OCO3 | 9.04% |
| CCOc1ccc(Cl)cc1CSc1n[nH]c(C)n1 | 6.74% |
| Cc1cccc(NC(=S)N/C(=N/S(=O)(=O)c2ccccc2)c2ccccc2)c1 | 12.3% |
| N#Cc1ccc(N2CCOCC2)c([N+](=O)[O-])c1 | 3.4% |
| Cc1cccc2c(C(=O)n3cccn3)cc(-c3ccccc3Cl)nc12 | 12.7% |
| O=C(O)c1nn(-c2ccccc2-c2n[nH]c(=O)[nH]c2=O)c(=O)[nH]c1=O | 11.5% |
| CC(=O)c1ccc(NC(=S)NNC(=O)c2ccncc2)cc1 | 6.86% |
| Cc1sc2nc(CN3CCOCC3)nc(NS(=O)(=O)c3ccc4c(c3)OCCO4)c2c1C | 13.1% |
| N#Cc1c(Cl)nc(-c2ccncc2)nc1-c1ccccc1 | 13.1% |
| CC(=O)C1=C(C)OC(N)=C(C#N)C1c1ccncc1 (stereo not shown) | 9.29% |

| SMILES | hERG current change (%, negative = inhibition) at 1uM |
| --- | --- |
| COC(=O)c1cccc(NC(=O)COc2cccc([N+](=O)[O-])c2)c1 | 18% |
| COc1cc(C(=O)O)cc(NC(=O)c2ccco2)c1OC | 6.25% |
| O=C(CN1CCSc2ccccc21)NCCCc1ccccc1 | 1.91% |
| O=C(Nc1ccc([N+](=O)[O-])cc1)C1CC1(c1ccccc1)c1ccccc1 (stereo not shown) | 4.79% |
| Cc1ccc(N(C)S(=O)(=O)c2cccc(C(=O)Nc3ccc(N4CCOCC4)cc3)c2)cc1 | 4.42% |
| O=C(C#Cc1ccccc1)Nc1ccc(F)cc1 | 16% |
| N#CCCSc1ccccc1NC(=O)c1cc(=O)c2ccccc2o1 | -0.601% |
| CSc1nnc(-c2ccc(NC(N)=S)cc2)o1 | 7.15% |
| O=C(COC(=O)C1CC1)Nc1ccc2c(c1)OCO2 | 10.9% |
| COc1ccc(N2C(=NC(=O)C3CCCCC3)SC3CS(=O)(=O)CC32)cc1 (stereo not shown) | 13.6% |
| O=C(CSc1ncccn1)N1CCN(C(c2ccccc2)c2ccccc2)CC1 | 4.43% |
| CC1CSc2nnc(CCc3ccccc3)n21 (stereo not shown) | 9.67% |
| Cc1ccc(O)c(C2=NNC(O)(C(F)(F)F)C2)c1 (stereo not shown) | 2.87% |
| Cc1c(Br)c(C(F)(F)F)nn1CC(=O)NCc1ccco1 | 7.36% |
| Cc1noc(C)c1CSc1nnc(C)c(=O)[nH]1 | 8.26% |
| Fc1cccc(CSc2ccc3nnc(-c4cccnc4)n3n2)c1 | -0.141% |
| Cc1ccc2nc(Nc3nc(-c4ccccc4)cc(=O)[nH]3)nc(C)c2c1 | 12.9% |
| CCOC(=O)C1=C(CC)Nc2ccccc2N=C1NC(=O)c1cc(S(=O)(=O)N(C)C)ccc1Cl | 14.2% |
| CCOC(=O)Cc1c(C)nc2c(-c3ccc(OC)cc3)c(C)nn2c1C | 8.96% |
| Cc1cc(C)c2nc(-c3ccccn3)cc(C(=O)NCc3cc(C)n(C)n3)c2c1 | 0.286% |

| SMILES | hERG current change (%, negative = inhibition) at 1uM |
| --- | --- |
| CC1CN(Cc2nc3c(c(=O)n(C)c(=O)n3C)n2CCCO)CC(C)O1 (stereo not shown) | 4.86% |
| Cc1cc(C(F)(F)F)nn1CC(=O)N1CCCCC1C (stereo not shown) | 6.75% |
| CN(C)C(=O)CN(c1ccc2c(c1)OCO2)S(C)(=O)=O | 14.9% |
| CC(C)C(OC(=O)c1cccs1)C(=O)NCCc1ccccc1 (stereo not shown) | 12.6% |
| CCN1CCN(C(=O)/C=C/c2c(F)cccc2Cl)CC1 | 2.69% |
| O=C(N/N=C/c1ccccc1F)c1ccc(COc2ccccc2Cl)o1 | -0.706% |
| Cn1c(SCC(=O)c2ccc(F)cc2)nnc1-c1cccnc1 | 4.68% |
| Cc1nn(Cc2cccc(F)c2)c(C)c1NC(=O)c1c(Cl)cnn1C | 15.3% |
| CN1CCN(C(=O)/C=C/c2ccc3c(c2)OCO3)CC1 | 7.04% |
| O=C(O)c1sccc1S(=O)(=O)N1CCN(c2ccc(C(F)(F)F)cn2)CC1 | 6.39% |
| O=C(NC1CCCc2ccccc21)c1cn2ccccc2n1 (stereo not shown) | -0.565% |
| COC(=O)Cn1ccc2cc(S(=O)(=O)N3CCCCCC3)ccc21 | 11.9% |
| CCNC(=O)C(=O)NCC1OCCCN1S(=O)(=O)c1cccs1 (stereo not shown) | 4.08% |
| Cc1cc(N(C)C)c(C#N)c(NCc2ccccc2)n1 | 6.98% |
| COC(=O)CCCn1nc(NC(=O)COc2ccc(F)cc2)cc1C | -0.777% |
| O=C(OCc1c(F)cccc1Cl)c1cc([N+](=O)[O-])ccc1N1CCOCC1 | 10.8% |
| CCCCCC(=O)N1CCN(S(=O)(=O)c2ccc3c(c2)OCCCO3)CC1 | 8.75% |
| COc1ccc(S(=O)(=O)/C(C#N)=C/Nc2ccccc2F)cc1 | 2.97% |
